# Values joined by “and” are separate entries in the source; they are usually repeats but may differ in a detail not shown here. Identical values can stand only once. Inconclusive results, whose numbers are uncertain, are shown with a selection of clear calls. For some of these results: Potencies beside an inconclusive call are fits to weak or partial responses and may not hold up. Active and inactive are the calls of the source. Unless noted, the call rests on the fitted dose curve.
# Tests used:
# [1] = target: Estrogen receptor beta (Homo sapiens) (UniProt Q92731); assay: qHTS assay to identify small molecule antagonists of the estrogen receptor beta (ER-beta) signaling pathway (AID 1259378; active means well fitted inhibition curve with a large enough effect in the signal ratio in the repeat runs, not every such curve was filed as active; inconclusive means weak or mixed curves, or effect the other way; inactive means no such curve, though single readings can be large or run the other way; the % refers to the signal ratio; further: on the % scale 0 is the no-effect control and ±100 the full control effect); details: ER-beta-UAS-bla HEK293T, beta-lactamase FRET ratio, 16 h; activity, negative = inhibition: at 92.4 µM (top of the series) unless noted
# Chain of UniProt Q92731 (Q92731 whole entry, looked up): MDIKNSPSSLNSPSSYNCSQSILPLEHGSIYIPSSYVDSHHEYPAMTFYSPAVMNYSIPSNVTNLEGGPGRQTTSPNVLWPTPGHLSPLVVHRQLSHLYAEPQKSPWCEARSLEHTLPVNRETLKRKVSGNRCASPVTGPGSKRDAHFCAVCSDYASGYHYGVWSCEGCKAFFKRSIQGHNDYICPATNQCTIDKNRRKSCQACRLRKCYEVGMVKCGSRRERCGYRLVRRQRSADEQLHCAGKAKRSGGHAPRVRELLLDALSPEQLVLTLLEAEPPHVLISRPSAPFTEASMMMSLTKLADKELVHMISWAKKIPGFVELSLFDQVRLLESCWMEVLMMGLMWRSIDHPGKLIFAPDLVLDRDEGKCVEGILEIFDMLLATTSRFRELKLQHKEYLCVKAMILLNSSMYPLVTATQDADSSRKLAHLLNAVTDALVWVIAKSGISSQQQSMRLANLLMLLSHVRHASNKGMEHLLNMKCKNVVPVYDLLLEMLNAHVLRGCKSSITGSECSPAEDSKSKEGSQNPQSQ
# Procedure, shortened: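 ER-beta-UAS-bla HEK293T cells in 2% charcoal-stripped FBS medium treated with compound plus 1nM final 17-beta-estradiol for 16 hr at 37C. Beta-lactamase reporter read by FRET substrate fluorescence after 2 hours at room temperature.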
# [2] = qHTS assay to identify small molecule antagonists of the progesterone receptor (PR) signaling pathway - cell viability counter screen (AID 1346798; active means well fitted curve in the direction sought with a large enough effect in the repeat runs; inconclusive means weak or mixed curves; inactive means no such curve, though single readings can be large; an effect the other way counts as inactive or inconclusive; further: nearly all actives have a fitted effect of over 50% in size; further: potency means the concentration at half of the fitted maximal effect); details: PR-UAS-bla HEK293T viability, CellTiter-Glo luminescence, 16 h; series mostly up to 92.4 µM
# Procedure, shortened: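 Luminescence readout (CellTiter-Glo, 30 min, RT) of viability in PR-UAS-bla HEK293T cells exposed to compound and R5020 agonist for 16 hr at 37C, 5% CO2; run in the same wells as the beta-lactamase reporter read.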
# [3] = target: Thyrotropin receptor (Homo sapiens) (UniProt P16473); assay: qHTS assay to identify small molecule antagonists of the thyroid stimulating hormone receptor (TSHR) signaling pathway (AID 1259385); details: TSHR-HEK293 cAMP HTRF, TSH-stimulated antagonist mode; activity change, negative = inhibition: at 92.4 µM (top of the series) unless noted; further: nearly all actives have a fitted effect of over 20% in size; further: potency means the concentration at half of the fitted maximal effect; on activity change, negative = inhibition: on the % scale 0 is the no-effect control and ±100 the full control effect
# Chain of UniProt P16473 (P16473 whole entry, looked up): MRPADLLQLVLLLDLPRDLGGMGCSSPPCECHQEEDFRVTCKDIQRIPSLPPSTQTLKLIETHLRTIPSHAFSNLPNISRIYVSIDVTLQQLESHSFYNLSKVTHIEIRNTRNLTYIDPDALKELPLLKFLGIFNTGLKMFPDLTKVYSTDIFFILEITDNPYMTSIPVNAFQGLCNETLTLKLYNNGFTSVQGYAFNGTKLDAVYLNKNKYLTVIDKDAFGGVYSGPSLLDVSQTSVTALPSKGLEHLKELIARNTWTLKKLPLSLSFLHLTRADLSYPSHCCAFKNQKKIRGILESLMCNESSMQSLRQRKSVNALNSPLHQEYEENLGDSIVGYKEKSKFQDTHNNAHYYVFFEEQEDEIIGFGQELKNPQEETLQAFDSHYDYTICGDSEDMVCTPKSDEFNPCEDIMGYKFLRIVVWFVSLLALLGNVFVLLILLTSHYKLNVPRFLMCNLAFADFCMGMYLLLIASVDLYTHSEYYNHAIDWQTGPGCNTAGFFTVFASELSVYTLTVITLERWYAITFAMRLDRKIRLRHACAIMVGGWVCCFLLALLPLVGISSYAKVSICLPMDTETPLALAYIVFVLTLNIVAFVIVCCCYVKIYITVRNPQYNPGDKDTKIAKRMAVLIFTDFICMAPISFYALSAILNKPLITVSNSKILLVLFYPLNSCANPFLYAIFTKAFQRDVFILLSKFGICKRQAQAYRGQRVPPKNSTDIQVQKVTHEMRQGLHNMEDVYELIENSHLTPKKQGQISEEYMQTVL
# Procedure, shortened: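 TSHR-HEK293 cells (800/well) plated 18 h, then compounds with Ro20-1724 and TSH at 1.5 ng/mL final, 30 min at room temperature. cAMP quantified by HTRF (cAMP-d2/anti-cAMP-cryptate, 1 h); 15 concentrations in triplicate.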
# [4] = target: Progesterone receptor (Homo sapiens) (UniProt P06401); assay: qHTS assay to identify small molecule antagonists of the progesterone receptor (PR) signaling pathway (AID 1346795; active means well fitted inhibition curve with a large enough effect in the signal ratio in the repeat runs, not every such curve was filed as active; inconclusive means weak or mixed curves; the % refers to the signal ratio; further: on the % scale 0 is the no-effect control and ±100 the full control effect); details: PR-UAS-bla HEK293T, beta-lactamase FRET ratio, 16 h; activity change, negative = inhibition: at 92.4 µM (top of the series) unless noted
# Chain of UniProt P06401 (P06401 whole entry, looked up): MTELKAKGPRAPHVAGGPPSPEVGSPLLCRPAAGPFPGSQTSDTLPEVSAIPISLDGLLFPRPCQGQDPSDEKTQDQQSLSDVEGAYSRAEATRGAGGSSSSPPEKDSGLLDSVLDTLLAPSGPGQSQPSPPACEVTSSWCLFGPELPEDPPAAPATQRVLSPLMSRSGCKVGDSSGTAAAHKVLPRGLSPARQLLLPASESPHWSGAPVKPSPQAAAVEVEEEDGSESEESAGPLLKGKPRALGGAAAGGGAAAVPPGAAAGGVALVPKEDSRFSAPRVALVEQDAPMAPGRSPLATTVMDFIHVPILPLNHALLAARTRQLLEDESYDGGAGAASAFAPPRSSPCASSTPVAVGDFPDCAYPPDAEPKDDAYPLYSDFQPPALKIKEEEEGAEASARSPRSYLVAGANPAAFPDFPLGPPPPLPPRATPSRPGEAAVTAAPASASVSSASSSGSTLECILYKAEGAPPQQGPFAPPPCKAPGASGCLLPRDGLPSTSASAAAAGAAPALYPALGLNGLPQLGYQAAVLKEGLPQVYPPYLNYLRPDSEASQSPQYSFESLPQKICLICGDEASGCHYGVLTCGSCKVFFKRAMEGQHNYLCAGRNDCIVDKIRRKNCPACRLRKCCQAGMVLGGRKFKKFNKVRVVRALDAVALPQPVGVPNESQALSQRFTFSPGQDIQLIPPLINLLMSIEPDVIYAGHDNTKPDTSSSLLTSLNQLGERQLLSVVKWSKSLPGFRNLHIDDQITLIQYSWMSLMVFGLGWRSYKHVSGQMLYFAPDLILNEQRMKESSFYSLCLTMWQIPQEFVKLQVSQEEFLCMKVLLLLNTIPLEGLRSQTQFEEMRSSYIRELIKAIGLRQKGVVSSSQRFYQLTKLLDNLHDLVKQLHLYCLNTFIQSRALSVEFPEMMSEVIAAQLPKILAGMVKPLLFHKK
# Procedure, shortened: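 Beta-lactamase reporter, HEK293T PR-UAS-bla line; 2% charcoal-stripped FBS; 6 hr pre-incubation, 37C/5% CO2. Compound + R5020 1 nM final, 16 hr. LiveBLAzer B/G FRET substrate, 2 hr RT; fluorescence intensity read.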
# [5] = qHTS assay to identify small molecule antagonists of the TGF-beta/Smad signaling pathway (AID 1346924; active means well fitted inhibition curve with a large enough effect in the signal ratio in the repeat runs, not every such curve was filed as active; inconclusive means weak or mixed curves; the % refers to the signal ratio; further: potency means the concentration at half of the fitted maximal effect); details: SBE-bla HEK293T, TGF-beta/Smad reporter, beta-lactamase ratio; activity, negative = inhibition: at 76.8 µM (top of the series) unless noted
# Procedure, shortened: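 Read-out was FRET-substrate fluorescence (405 nm excitation; 460 and 530 nm emission) after 2 h at room temperature. Before that, cells carrying a Smad-binding-element beta-lactamase reporter in HEK 293T had been stimulated 5 h at 37 C with TGF-beta1 (0.25 ng/mL addition solution) in the presence of test compound.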
# [6] = target: Progesterone receptor (Homo sapiens) (UniProt P06401); assay: qHTS assay to identify small molecule agonists of the progesterone receptor (PR) signaling pathway (AID 1346784); details: PR-UAS-bla HEK293T, beta-lactamase FRET ratio, 16 h; activation: at 92.4 µM (top of the series) unless noted; further: nearly all actives have a fitted effect of over 30% in size; further: potency means the concentration at half of the fitted maximal effect; on activation: on the % scale 0 is the no-effect control and ±100 the full control effect
# Procedure, shortened: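 HEK 293T PR-UAS-bla reporter cells, 2% charcoal-stripped FBS; 6 hr settle at 37C/5% CO2, compound (DMSO) 16 hr, LiveBLAzer B/G FRET substrate 2 hr RT, fluorescence intensity read.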
# [7] = qHTS assay to identify small molecule agonists of the androgen receptor (AR) signaling pathway in the presence of an antagonist - cell viability counter screen (AID 1259379; active means well fitted curve in the direction sought with a large enough effect in the repeat runs; inconclusive means weak or mixed curves; inactive means no such curve, though single readings can be large; an effect the other way counts as inactive or inconclusive; further: potency means the concentration at half of the fitted maximal effect; nearly all actives have a fitted effect of over 25% in size); details: MDA-kb2 viability, CellTiter-Fluor, 16 h; series mostly up to 92.4 µM
# Procedure, shortened: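 Cytotoxicity counter-screen run in the same wells as the nilutamide-challenged (3.0 µM final) AR agonist assay in MDA-kb2 cells. Compounds tested at 15 concentrations for 16 h, 37 °C without CO2; CellTiter-Fluor fluorescence read.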
# [8] = qHTS assay to identify small molecule agonists of the estrogen receptor beta (ER-beta) signaling pathway - cell viability counter screen (AID 1259380; active means well fitted curve in the direction sought with a large enough effect in the repeat runs; inconclusive means weak or mixed curves; inactive means no such curve, though single readings can be large; an effect the other way counts as inactive or inconclusive; further: potency means the concentration at half of the fitted maximal effect; nearly all actives have a fitted effect of over 30% in size); details: ER-beta-bla HEK293T viability, CellTiter-Glo luminescence, 16 h; series mostly up to 92.4 µM
# Procedure, shortened: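 Cell viability counter screen: CellTiter-Glo luminescence (30 min, room temperature) measured in the same wells as the beta-lactamase readout, after 16 hr compound exposure at 37C of ER-beta-bla HEK293T cells in 2% charcoal-stripped FBS medium.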
# [9] = qHTS assay to identify small molecule agonists of the TGF-beta/Smad signaling pathway (AID 1346859; active means well fitted activation curve with a large enough effect in the signal ratio in the repeat runs, not every such curve was filed as active; inconclusive means weak or mixed curves; the % refers to the signal ratio; further: potency means the concentration at half of the fitted maximal effect); details: SBE-bla HEK293T, TGF-beta/Smad beta-lactamase reporter, 5 h; activation: at 76.8 µM (top of the series) unless noted
# Procedure, shortened: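 Read-out: fluorescence at 460 and 530 nm (405 nm excitation) after a 2 hr room-temperature incubation with beta-lactamase FRET substrate. SBE-bla HEK 293T cells had been treated with test compounds for 5 hr at 37 C.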
# Tags describe the fitted curve by direction and shape or compound fluorescence and quenching.
smiles,measurement,setting,value
C=CC(=C)CCCC(C)(C)OC(C)=O,Potency,[1],inactive
same,Potency,[2],inactive
Nc1ncnc2c1ncn2[C@@H]1O[C@H](COP(=O)(O)O)[C@@H](O)[C@H]1O,"activity, negative = inhibition",[1],inconclusive: 24% [at 42.5 µM]
same,Potency,[3],inactive
same,Potency,[4],inactive
same,Potency,[2],"inconclusive: 29.8 µM [cytotoxic, single point]"
same,"activity, negative = inhibition",[5],inconclusive: 4.3% [at 35.3 µM]
CC(C(=O)O)c1cccc(C(=O)c2ccccc2)c1 (stereo not given),Potency,[1],inactive
same,Potency,[6],"inconclusive: 33.5 µM [rising, partial curve, poor fit]"
same,Potency,[5],"inconclusive: 21.9 µM [rising, partial curve]"
CCC(=O)/C=C/C1C(C)=CCCC1(C)C (stereo not given),Potency,[1],inactive
same,Potency,[4],inactive
COC(=O)/C=C/c1ccccc1,"activity, negative = inhibition",[1],inconclusive: 26.7%
same,Potency,[3],"inconclusive: 2.17 µM [falling, partial curve, poor fit]"
same,Potency,[6],inactive
same,"activity change, negative = inhibition",[4],inconclusive: -30%
C=CC(=O)OCCCCCCCC(C)C,Potency,[1],inactive
same,Potency,[4],inactive
CC1CC(C)C(=O)C1=O (stereo not given),Potency,[1],inactive
same,Potency,[4],inactive
CC#C[C@]1(O)CC[C@H]2[C@@H]3CCC4=CC(=O)CCC4=C3[C@@H](c3ccc(N(C)C)cc3)C[C@@]21C,Potency,[7],"inconclusive: 48.6 µM [cytotoxic, partial curve]"
same,Potency,[8],"inconclusive: 486 nM [cytotoxic, full curve] and inconclusive: 11.9 µM [cytotoxic, partial curve]"
same,"activity change, negative = inhibition",[3],inconclusive: -25% [at 42.5 µM]
same,Potency,[9],"inconclusive: 38.9 µM [rising, partial curve] and inconclusive: 21.3 µM [rising, partial curve]"
same,Potency,[5],"inconclusive: 43.6 µM [rising, partial curve]"
